The supplement of paper PMC12632987
Whole data set: some 4,500 sequences, median “median log2 fold change of GCK-ALFA target abundance (FLAG IP / Myc IP barcode read proportion)” near 0.078, cut for the lowest 2% near -0.6. The list shows a part of the results.

B1: GBRAP_160_4833 (protein)
chain: MEKVEKAKKYIREEFKEIIEMMKGQSAEERAAIVRVGMGEIIMYLEEEGVLTDELGDFIVEETDKIVDTILANPDLTDEELTALLEDAEKRIIAALEKEA
B2: GBRAP_11_2903 (protein)
chain: KKEKLEKLAKLLEEAAKLLEKLLKEGTDDEELLKEALKVAEEALKLGKEVLDESSVELLKEAVKLLKEAKENPEKAEQYVKEALAILRVLEGQVLLEIEE
B3: GBRAP_39_5667 (protein)
chain: EEEEENEDVVSYLEAVAAKYLYETGISLEEAFEEAKKVLKEYAEKHPELKELIEELIKLAEEKGEEAKLALIGIAVLIKEGTPLEEIKEKIEKVIAYFKS
B4: GBRAP_139_3685 (protein)
chain: SHLEKIIEKAKELTKKAVEEGEPYVKKLVEFLSTLSEEEFEAAAKAVAEELQKYDLDTAEKLADLILEKAEEILKDEDKRIIVEAELNRALALRAVREEE
B5: GBRAP_80_6859 (protein)
chain: AEARLAAAAARLKELLPEQAELIDRVVKIAKELGVPLEDIADLLEALAELAKVDKELAAELLKELLKDLEEEKKAGNSENALATVRGYAGEALMLAEELE
B6: GBRAP_195_5411 (protein)
chain: KKVESEVLRITKEDTEEEILEKIEEIIEKVKKKSNGVLVLVVARHPEIPEETVEKAVKEAQKKFPEIEVILEVFDDISLPLETLEKIAEMLRLNEEEELE
B7: GBRAP_48_5835 (protein)
chain: EEERLERAVEESLRVIRETAELLEEARAEGLSEAAIEAILIDAADELEEILERYLGLGEAFRALPLEERLAMVRELVETLREEGEEAARALIRERIAELA
B8: GBRAP_184_5344 (protein)
chain: KTLEVHIENKSLEEIVKEAEKYAKEAAAQGADLIISIDAEGLSDEELVKLVEEIGKIAKKEGVKNLTIGIDKEVDEETADKLLKVADKYGIKLTLALKDE
B9: GBRAP_90_7013 (protein)
chain: SATEEKIKELEHEKEVVLEEMDLGVVSARDDEELEEAMKILDEYNAEAATAVLSVKELKPIIGEEKAEKYIKEIREAGNDKEKIKELLEKAYEEAIKIAK
B10: GBRAP_160_4520 (protein)
chain: SAALEEAEKELEEAAKEAIEMVKGETAEQRAVIVDGEFGSFAMELASNPEYSDEMVDVVLKARDEIVDTILANPDLTDEELEELIEKAVEEAKKELRKLA
B11: GBRAP_160_4474 (protein)
chain: MEKVKKAVEELRKDVEETLEENEDLPPKDLLLAVEVTIGSNLMEWVEEGTLTDEQEDVVMEAMDEVRRLREESEDMSVEEVKERAREIIERMAERILALA
B12: GBRAP_43_5737 (protein)
chain: MEEVLDAAAETALLALESEELTDETKIKILRDFFEVAADESKENKELYKAAAEALKKHQDLEAVKKAAELAKEIAKKDPKYKEVFEKAAEYLEKLAKKLE
B13: GBRAP_150_3934 (protein)
chain: DLEELLLLAESVADLLDLALNEGIDRLKALKRAQELLKDLIKEADEELKEIAKKAQELIKKAIKLEEEGGEEKEIKKLLKKAQELAKELAKELEKKIEEE
B14: GBRAP_125_3097 (protein)
chain: HMEELLEALRRIALALGFSEEDAEELARLAREGSLRQTLVALFLAEGEEEVADLVAQLTEEQAAELVRRLAEYLEAHPDLTKEEVVEKAKEIAEELLAKA
B15: GBRAP_166_4895 (protein)
chain: STADAIAQIDALADDVIARIAELTPEELLAAFVEMAEIVEEAGATPELIAAAAAAFARVARAAVAAGRDWAEVETLVLGAVGYNEKLLDAVEAALAAARA
B16: GBRAP_160_4681 (protein)
chain: SAKVEEAEEELEEEFEEVLSLYDEMTPEQLAAAVRVAFGELKLYLEELGLLTDEVEEVLDEEEERIVDYILANPNITREEFAELLEEAKEEIVEKLKEAA
B17: GBRAP_35_5556 (protein)
chain: SSDEEIVDMMTNTAEDALLTVDEIPVDTAFEIVEKIAKAALEILKKEKENVEGMKRLADATLEALDALIKRLKEEGAPEEKIKRLEELRKEIKEELEKIK
B18: GBRAP_52_6385 (protein)
chain: KVEEAAKLLWEAIKLIMEGGPEEEVKKLAKELLKYDEETLEEAAKLVAERLKELSPEEAEKALEATFKLADILEELGLPEEVASLIEAEIGKAAYEVLQK
B19: GBRAP_125_3127 (protein)
chain: EEERLLADLAELLRALGLDDEDVEEAVRLAREHGLRGTLYAVMLALGWDELADLVAQLTEEQTAAVLREVVARLRANPDLTPEEVRALLLEVARAAVAAS
B20: GBRAP_160_4458 (protein)
chain: SERKEKLIKEVDETRDLAKELIEGESHEQRVVIVEGEFGSFLLDLAEDENVSDELEDEVAEIIDELVEYMRANPDLSEEEIKELIDEAAEKIKEAIEKHL
B21: GBRAP_83_6876 (protein)
chain: KEEITVAGNSDNIEEAFEIAEDLHKEEGYEVTIELVITREDIPKLKEEFKELAEAGVETELEIYLEGATEEEAEELEKELKKIAKEAGVNIKITVHVIEL
B22: GBRAP_160_4173 (protein)
chain: MEKLKEAEKEIEEIFREAVEMMVGQSAEERAAIAAVAFGEVRLLLEEKGLLTDELDEHIDEVEEEVVGYILAHPDLTDEELRELMEEAREKIIEALKKSS
B23: GBRAP_160_4553 (protein)
chain: SEKREEAIKLAEEELKFVLEVVEEESNEEAKIVAIGEFGSLLMEVFLSGEFSDELEDKLGEIGDELEEELEKAVNGSKEEVKKVIERKYKEAIELLKKSE
B24: GBRAP_82_6866 (protein)
chain: MKTVIVLVVARDEEVAAAAKKAIEELKPRIEKLKEKGIEVEFIVTTFDEESLDAGVERAEALKAAHPGAEIEDVAVTRPEKALSELEAALDEIEEEAKEE
B25: GBRAP_160_4048 (protein)
chain: SEKVKKAKEFAKELFDEAIKLMEDLTPEQAANLMDVTVGQAILEAEELGIETTPELDAVLDEARALRDAVLADPSTTVEEVIEAARRLEEKFLKALEKQD
B26: GBRAP_128_3481 (protein)
chain: STEEVVARTRELMRRIRESSLEEVRELAEELVALLGSMDEESREAATEVIIEMLPELSVEKLEVLADVLRELRPKLDPFTATQAADIEIAALEEAEEKEE
B27: GBRAP_160_4470 (protein)
chain: SATVKALTEELRAEVEETLALLRDETPEQIATGVEVTIGSHLMEWSEEGKISDEQEDILIEAMDRVRALAAAERDATPEEMIARLREIVDEAVERILAAA
B28: GBRAP_11_2764 (protein)
chain: KKEKLKEIAELAKELAELLEQILEEGVDDEELLEKAREQLEKLTELVEKYGDEAQKKLAEILREHLEEAEEDPENRERHLREARATALVLSGQFLLEAEE
B29: GBRAP_160_4714 (protein)
chain: SETAEKLQKLIEEEFEKAIELIKGETTEQRAIIVEGTVGEILMEFVENEKVPDELEDEVLKIGDELVATIRANPNLTEEQIKELIKEAEEKMKEAVKKYL

Biological target: GABARAP, O95166
Experiment: median log2 fold change of GCK-ALFA target abundance (FLAG IP / Myc IP barcode read proportion) (log2 ratio); each designed protein is fused to an ALFA-tag nanobody in HEK293 cells to bring the named protein to FLAG-tagged glucokinase (GCK); Myc marks an untargeted standard; higher = target protein stabilised (more abundant)
Conditions: target protein: 3xFLAG-MCP-GCK-ALFA reporter; HEK293 landing pad (RPLP)
Summary of the method: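 Binders fused to an ALFA nanobody were recombined as a library into HEK293 landing-pad cells, which were induced with 2 μg mL^−1 doxycycline and then transfected to express a FLAG-tagged target and a Myc-tagged standard. After 48 h, circular RNA barcodes recovered by anti-FLAG and anti-Myc immunoprecipitation of lysates were reverse transcribed, amplified and sequenced. Each binder's target abundance is the median log2 ratio of FLAG to Myc barcode read proportions, from barcodes present at ≥10^−7 in both replicates, binders carrying ≥3 barcodes per replicate, a 10^−6 pseudocount and pooled replicates.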

Sequence of GABARAP, O95166 (O95166 whole entry, the tested form may be a part): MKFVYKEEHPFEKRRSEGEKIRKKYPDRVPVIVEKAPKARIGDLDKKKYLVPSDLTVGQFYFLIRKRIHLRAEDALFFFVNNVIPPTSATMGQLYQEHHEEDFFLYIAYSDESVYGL

Binder | median log2 fold change
B1 | 0.0874
B2 | 0.268
B3 | 0.11
B4 | -0.0605
B5 | 0.0818
B6 | 0.0189
B7 | 0.091
B8 | 0.42
B9 | 0.233
B10 | 0.108
B11 | -0.295
B12 | 0.26
B13 | 0.0862
B14 | 0.128
B15 | 0.122
B16 | -0.56
B17 | 0.109
B18 | -0.186
B19 | -0.495
B20 | -0.285
B21 | 0.191
B22 | -0.138
B23 | -0.205
B24 | 0.129
B25 | 0.0607
B26 | 0.0415
B27 | -0.0467
B28 | 0.137
B29 | -0.444
